Measurements published in PubChem BioAssay (NCATS).
The shares of active, inactive and inconclusive entries below differ from those in the screen. For part of these data: A potency beside an inconclusive call is a rough fit, not a confirmed value. Activity calls are given as the source filed them. Unless noted, calls follow the shape of the dose curve; as a rule, active = well fitted curve in the direction sought with a large enough effect; inconclusive = small, poorly fitted or top-dose-only effect, or another doubt; inactive = no such curve, though single readings can be large; an effect the other way counts as inactive or inconclusive.

Columns and labels:
[1] = Primary qHTS for inhibitors of nuclear receptor binding SET domain protein 2 (NSD2) in an isogenic RCH-ACV NSD2 p.E1099K mutant (9B) (AID 1645876); settings: activity change, negative = viability loss: at 44.9 µM (top of the series) unless noted; also: potency is read from the fitted curve at half-maximal effect; nearly all actives have a fitted effect of over 70% in size
[2] = Primary qHTS for inhibitors of nuclear receptor binding SET domain protein 2 (NSD2) in an RCH-ACV wild type WT cells (2C) (AID 1645877); settings: activity change, negative = cell killing: at 44.9 µM (top of the series) unless noted; also: potency is read from the fitted curve at half-maximal effect; nearly all actives have a fitted effect of over 70% in size
Hek293T = test: Primary qHTS to identify gynecologic anti-cancer compounds using libraries of approved drugs and bioactive compounds (AID 1345084); settings: Gynecologic cancer cell panel viability, ATPlite luminescence, 48 h, control line for the selectivity index; series mostly up to 57.5 µM; also: % is scaled to controls: 0 for no effect and ±100 for the full control effect; nearly all actives have a fitted effect of over 55% in size
In short: (§1)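 Five-concentration response, 48 h; readout is ATP-driven luciferase luminescence.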

SKOV3 = test: as above; settings: Gynecologic cancer cell panel viability, ATPlite luminescence, 48 h; series mostly up to 57.5 µM
In short: as §1

[3] = qHTS Assay for Identification of Small Molecule Antagonists for NFkB Signaling Pathway (AID 895; active = well fitted inhibition curve with a large enough effect in the signal ratio, with a control signal flat, not every such curve was filed as active; inconclusive = small, poorly fitted or top-dose-only effect, or effect the other way, or a change in a side signal; the % refers to the signal ratio; also: potency is read from the fitted curve at half-maximal effect); settings: NFkB beta-lactamase reporter cells, FRET ratio 460/530, stimulated with 10 pM TNF alpha; activity change, negative = inhibition: at 38.3 µM (top of the series)
In short: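 NFkB-bla ME-180 cervical carcinoma cells with beta-lactamase reporter under NFkB response element; compounds added, then TNF alpha at 10 pM final (EC50), 5 h at 37 C. LiveBLAzer substrate 2 h, room temperature; emission 460/530 nm at 405 nm excitation.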

[4] = qHTS Assay for Identification of Small Molecule Agonists for Hypoxia Response Element Signaling Pathway (AID 914; active = well fitted activation curve with a large enough effect in the signal ratio, with a control signal flat, not every such curve was filed as active; inconclusive = small, poorly fitted or top-dose-only effect, or effect the other way, or a change in a side signal; the % refers to the signal ratio; also: potency is read from the fitted curve at half-maximal effect); settings: ME-180 (cervical carcinoma) HRE-bla reporter, beta-lactamase ratio, CoCl2, 17 h; activation: active compounds read high
In short: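 HRE-bla ME-180 cells, overnight plating in Opti-MEM with 0.5% dialyzed FBS; cpd titration + EC50 CoCl2, 17 h, 37 degrees Celsius; CCF4 2.5 h RT; 460/530 nm ratio; AC50.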

[5] = qHTS Assay for Identification of Small Molecule Antagonists for Thrombopoietin (TPO) Signaling Pathway (AID 918); settings: TPO-dependent cell signaling reporter, antagonist mode; activity change, negative = inhibition: at 38.5 µM (top of the series); also: nearly all actives have a fitted effect of over 60% in size
In short: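 Inhibition read as reduced luciferase luminescence after 24 h at 37 C in IL-3-deprived Ba/F3 cells carrying human TPO receptor and GPIIb-promoter reporter, stimulated with 26 pM TPO (final, its EC50) alongside compound.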

[6] = qHTS Assay for Identification of Small Molecule Agonists for NFkB Signaling Pathway (AID 928; calls by dose curve); settings: NFkB beta-lactamase reporter cells, blue/green ratio
In short: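 Activators were sought with TNF alpha co-added at 10 pM final (its EC50) to beta-lactamase reporter cells. Cells were plated in OPTI MEM with 0.5% FBS and exposed for 5 hrs at 37 C. The FRET substrate ratio was read at 460 and 530 nm.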

[7] = biological target: Muscarinic acetylcholine receptor M1 (Rattus norvegicus) (UniProt P08482); test: qHTS Assay for Antagonists of Acetylcholine Muscarinic M1 Receptor: Kinetic Measurement of Intracellular Calcium Response (AID 943); also: potency is read from the fitted curve at half-maximal effect; nearly all actives have a fitted effect of over 75% in size
In short: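 Antagonism measured as reduction of carbachol-evoked (EC80, 100 nM final) calcium flux in rat M1-CHO cells after 10 min compound exposure. Fluo-4 signal read kinetically; ratio of maximal to basal fluorescence.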

[8] = qHTS Assay for Lipid Storage Modulators (AID 1519; calls by dose curve; also: % is scaled to controls: 0 for no effect and ±100 for the full control effect); settings: Drosophila S3 cells, BODIPY lipid droplet/cell ratio, laser cytometry, cells loaded with oleic acid; activity change, negative = inhibition: at 57.5 µM (top of the series) unless noted
In short: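 Cells seeded at 5,000 per well were treated with compounds over a concentration series and loaded with oleic acid (400 uM, as added). Lipid droplet fluorescence (488 nm excitation, 500-530 nm channel) was read by laser-scanning cytometry and normalized to 20 uM Triacsin C.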

[9] = biological target: Endonuclease 4 (Escherichia coli (strain K12)) (UniProt P0A6C1); test: Counterscreen for APE1 Inhibitors: qHTS Validation Assay for Inhibitors of Endonuclease IV (AID 1708); also: potency is read from the fitted curve at half-maximal effect
In short: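 Enzyme (2 nM) + compound, 15 min RT; add 50 nM TAMRA/BHQ-2 THF-site dsDNA; kinetic read ex525/em598, 3 reads/60 s; activity = read 3 − read 1. Buffer Tris pH 7.5, 50 mM NaCl, 2 mM MgCl2, DTT, Tween-20.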

[10] = biological target: RecQ-like DNA helicase BLM (Homo sapiens) (UniProt P54132); test: qHTS Validation Assay for Inhibitors of Bloom's syndrome helicase (BLM) (AID 2364); also: potency is read from the fitted curve at half-maximal effect
In short: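 BLM 50 nM in 25 mM Tris-HCl pH 8.0, 5 mM NaCl, 2 mM MgCl2, 1 mM DTT, 0.01% Tween-20, 2.5 ug/ml poly(dI-dC); 15 min cpd preinc, RT. Start: 200 nM forked DNA + 2 mM ATP (final). TAMRA read, 2 reads 2 h apart.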

[11] = biological target: ATP-dependent 6-phosphofructokinase (Trypanosoma brucei brucei) (UniProt O15648); test: qHTS Validation Assay to Find Inhibitors of T. brucei phosphofructokinase (AID 485368); settings: activity change, negative = inhibition: at 57.5 µM (top of the series)
In short: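 PFK-generated ADP was measured after 45 min at room temperature using ADP-Glo. The reaction contained 0.5 mM F6P and 0.1 mM ATP.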

[12] = biological target: Transient receptor potential cation channel subfamily V member 1 (Homo sapiens) (UniProt Q8NER1); test: HTS Assay for Compounds that Act as Enhancers of the Vanilloid Receptor 1 (AID 488979); also: 0% is about no effect
In short: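 TRPV1-expressing cells loaded with Fluo-8 calcium dye; compounds added and calcium influx read kinetically for 3 min (agonist phase), then capsaicin at EC20 added and read 2 min more for enhancement. Fluorescence ex 480/em 520 nm.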

[13] = biological target: ATPase family AAA domain-containing protein 5 (Homo sapiens) (UniProt Q96QE3); test: Validation screen for small molecules that inhibit ELG1-dependent DNA repair in human embryonic kidney (HEK293T) cells expressing luciferase-tagged ELG1 (AID 493107); settings: HEK293T ELG1-luciferase level, luminescence, 5-fluorouridine co-treatment, 16 h; activity change, negative = decrease: at 46.1 µM (top of the series); also: potency is read from the fitted curve at half-maximal effect; nearly all actives have a fitted effect of over 70% in size
In short: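 Luciferase read-out, ONE-Glo, 30 min at room temperature, follows 16 h co-exposure at 37 C of compound and the DNA-damaging agent 5-fluorouridine. Cells: HEK293T with ELG1-luciferase fusion, 2,000 per well, DMSO as vehicle.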

[14] = S16 Schwann cell PMP22 intronic element firefly luciferase assay (AID 624032); also: potency is read from the fitted curve at half-maximal effect; nearly all actives have a fitted effect of over 30% in size
In short: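 Rat S16 Schwann cells stably carrying a PMP22 intronic element-driven Fluc reporter were seeded overnight, then exposed to compounds for 24 h at 37 °C. Luminescence was normalized to PTC124 (positive control) and DMSO (0% activity).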

[15] = biological target: Glucagon-like peptide 1 receptor (Homo sapiens) (UniProt P43220); test: qHTS of GLP-1 Receptor Agonists: LOPAC Validation (AID 624148); settings: GLP-1R agonist cell assay; activation: at 46.1 µM (top of the series); also: potency is read from the fitted curve at half-maximal effect
In short: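 HEK293 cells stably co-expressing a cAMP-responsive luciferase reporter and a hypersensitive GLP-1R were plated 12 h at 37 °C and exposed to compounds for 4-6 hr at 37 °C, 5% CO2. Luminescence was read 12 min after adding detection reagent.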

[16] = qHTS of pediatric cancer cell lines to identify multiple opportunities for drug repurposing: Primary screen for SK-N-MC cells (AID 1347093); settings: SK-N-MC viability, CellTiter-Glo luminescence, 48 h; activity change, negative = cytotoxic: at 46 µM (top of the series); also: potency is read from the fitted curve at half-maximal effect
In short: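 Metabolically active cells were quantified by ATP-dependent luminescence (CellTiter-Glo, 15 min at room temperature) following 48 h treatment. Cells had been plated at 500-1,000 per well and settled for 5 h beforehand.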

[17] = biological target: Single-stranded DNA cytosine deaminase (Homo sapiens) (UniProt Q9GZX7); test: Validation qHTS assay for inhibitors of Activation Induced Cytidine Deaminase (AID): AID signal (AID 1347429); also: % is scaled to controls: 0 for no effect and ±100 for the full control effect
In short: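 Compounds (final up to 114 uM) preincubated with AID plus UDG; 250 nM DJC20/DJC23 substrate mix (4x stock) added, 4 hr at room temperature, then NaOH, 30 min. Read 1 fluorescence at 540 nm excitation, 590 nm emission.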

[18] = biological target: Cytochrome P450 2D6 (Homo sapiens) (UniProt P10635); test: Cytochrome P450 family 2 subfamily D member 6 (CYP2D6) small molecule antagonists: luciferase biochemical (cell-free) qHTS assay (AID 1645840; active = well fitted curve in the direction sought with a large enough effect in the repeat runs; inconclusive = weak or mixed curves; inactive = no such curve, though single readings can be large; an effect the other way counts as inactive or inconclusive; also: potency is read from the fitted curve at half-maximal effect; nearly all actives have a fitted effect of over 55% in size)
In short: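 P450-Glo CYP2D6 system: proluciferin substrate converted by enzyme to luciferin, read by luminescence proportional to activity. Enzyme-substrate mix with compound 10 min at room temperature, then NADPH regeneration 1 h before detection reagent.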

[19] = Drug repurposing screens with cells derived from glioblastoma tumor samples (AID 1345199); settings: GBM patient neurospheres viability, ATP luminescence, 48 h; Potency: tumour line A unless noted; activity, negative = cell killing: at 46 µM (top of the series), tumour line A unless noted; also: potency is read from the fitted curve at half-maximal effect; nearly all actives have a fitted effect of over 40% in size
In short: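 Primary testing used CD133+ neurospheres from four GBM patients, seven concentrations, 48 h exposure and ATP-based viability; confirmation added three slower-growing patient lines.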

CP325 = test: qHTS profiling for inhibitors of Plasmodium falciparum proliferation (AID 504749);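 also: 0% = DMSO vehicle and full inhibition = artemisinin control; nearly all actives have a fitted effect of over 60% in size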; settings: P. falciparum in erythrocytes, SYBR Green DNA, 72 h; series mostly up to 28.7 µM
In short: (§2)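 Quantitative HTS: compounds pinned into medium, infected erythrocytes added (0.3% parasitemia, 2.5% hematocrit), 72 h culture at 37 C under 5% CO2. Saponin/Triton lysis with SYBR Green I, overnight RT, then fluorescence read.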

SC27B = test: as above; settings: P. falciparum in erythrocytes, SYBR Green DNA, 72 h; series mostly up to 28.7 µM
In short: as §2

[20] = P-glycoprotein substrates identified in KB-8-5-11 adenocarcinoma cell line, qHTS therapeutic library screen (AID 1346987); settings: activity change, negative = cytotoxicity: at 44.5 µM (top of the series); also: % is scaled to controls: 0 for no effect and ±100 for the full control effect; nearly all actives have a fitted effect of over 65% in size
In short: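 Compounds are pinned in dose-response onto KB-8-5-11 cells (500 cells/well, colchicine-free medium) and left 72 h at 37 degree C. CellTiter-Glo luminescence then yields AC50 values.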

[21] = test system: Zika virus NS2B-NS3 protease (linked construct); test: Primary screen NINDS Rhodamine qHTS for Zika virus inhibitors (AID 1347160); also: % is scaled to controls: 0 for no effect and ±100 for the full control effect; nearly all actives have a fitted effect of over 55% in size
In short: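 Single-chain NS2B-NS3 protease, 25 nM, pH 8.0; compounds preincubated 15 min. Activity: Rhodamine110 release from 1.5 microM substrate over 15 min, room temperature, data fitted to 4-parameter Hill.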

[22] = test system: Zika virus NS2B-NS3 protease (linked); test: 384 well plate NINDS AMC confirmatory qHTS for Zika virus inhibitors (AID 1347163); also: potency is read from the fitted curve at half-maximal effect; nearly all actives have a fitted effect of over 50% in size
In short: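 Fluorescence at 355/460 nm was read after 25 minutes of cleavage of 30 microM Ac-VKTGKR-AMC at room temperature, in the dark. Before substrate addition, compounds (up to 1 mM final) sat ~15 minutes with 5, 30 or 60 nM linked protease. Signals were normalized to no-enzyme and no-inhibitor wells.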

[23] = Tertiary RLuc qRT-PCR qHTS assay for Zika virus inhibitors (AID 1347169); also: potency is read from the fitted curve at half-maximal effect; nearly all actives have a fitted effect of over 55% in size
In short: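 Vero cells (1,000/well) infected with recombinant ZIKV-RLuc (Cambodian) at MOI 1-2 after compound addition, 48-72 hrs at 37 degrees C. Live-cell Renilla luciferase substrate added; luminescence read after 1-1.5 hrs.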

[24] = biological target: Calcium and integrin-binding protein 1 (Homo sapiens) (UniProt Q99828); test: Primary qHTS for Identification of Calcium Integrin Binding Protein 1 (CIB1) Competitor (AID 1508620);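 also: GST tagged CIB1 binding a fluorescein labelled alphaIIb integrin peptide tracer; top concentration of the series differs between compounds; % is scaled to controls: 0 for no effect and ±100 for the full control effect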
In short: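 Fluorescence polarization competition: CIB1-GST (1 uM final) preincubated with compound 15 min at room temperature, then FITC-labeled alphaIIb peptide (100 nM final) added for another 15 min. Polarization read at Ex 480/Em 540.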
Tags tell the direction and shape of the fitted curve or compound fluorescence and quenching.

Sequence of UniProt P08482 (P08482 whole entry, looked up): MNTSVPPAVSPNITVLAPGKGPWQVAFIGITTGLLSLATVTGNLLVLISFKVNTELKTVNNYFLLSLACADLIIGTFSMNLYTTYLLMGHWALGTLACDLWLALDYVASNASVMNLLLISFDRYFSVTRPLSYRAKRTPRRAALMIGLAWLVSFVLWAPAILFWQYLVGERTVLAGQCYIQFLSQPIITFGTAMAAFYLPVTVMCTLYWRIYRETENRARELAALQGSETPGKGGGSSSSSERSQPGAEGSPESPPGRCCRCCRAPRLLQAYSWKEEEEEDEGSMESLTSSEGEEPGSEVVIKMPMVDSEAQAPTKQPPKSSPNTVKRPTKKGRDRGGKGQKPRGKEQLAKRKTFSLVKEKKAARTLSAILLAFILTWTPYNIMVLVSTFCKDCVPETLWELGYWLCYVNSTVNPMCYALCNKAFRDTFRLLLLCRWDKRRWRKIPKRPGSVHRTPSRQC
Sequence of UniProt O15648 (O15648 whole entry, looked up): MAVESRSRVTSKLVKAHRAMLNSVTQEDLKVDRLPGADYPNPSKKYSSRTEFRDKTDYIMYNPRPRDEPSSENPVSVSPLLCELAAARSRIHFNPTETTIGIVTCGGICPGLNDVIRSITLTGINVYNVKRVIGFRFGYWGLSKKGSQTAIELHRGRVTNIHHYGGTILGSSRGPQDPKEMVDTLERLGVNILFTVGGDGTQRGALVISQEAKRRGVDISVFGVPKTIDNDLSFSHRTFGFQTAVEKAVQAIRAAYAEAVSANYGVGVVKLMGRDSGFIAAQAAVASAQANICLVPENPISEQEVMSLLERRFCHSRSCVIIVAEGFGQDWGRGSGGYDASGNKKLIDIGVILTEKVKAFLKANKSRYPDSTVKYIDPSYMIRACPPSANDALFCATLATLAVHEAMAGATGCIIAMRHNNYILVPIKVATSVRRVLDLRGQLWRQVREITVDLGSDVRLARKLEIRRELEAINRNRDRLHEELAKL
Sequence of UniProt Q96QE3 (Q96QE3 whole entry, looked up, the tested form may be a part): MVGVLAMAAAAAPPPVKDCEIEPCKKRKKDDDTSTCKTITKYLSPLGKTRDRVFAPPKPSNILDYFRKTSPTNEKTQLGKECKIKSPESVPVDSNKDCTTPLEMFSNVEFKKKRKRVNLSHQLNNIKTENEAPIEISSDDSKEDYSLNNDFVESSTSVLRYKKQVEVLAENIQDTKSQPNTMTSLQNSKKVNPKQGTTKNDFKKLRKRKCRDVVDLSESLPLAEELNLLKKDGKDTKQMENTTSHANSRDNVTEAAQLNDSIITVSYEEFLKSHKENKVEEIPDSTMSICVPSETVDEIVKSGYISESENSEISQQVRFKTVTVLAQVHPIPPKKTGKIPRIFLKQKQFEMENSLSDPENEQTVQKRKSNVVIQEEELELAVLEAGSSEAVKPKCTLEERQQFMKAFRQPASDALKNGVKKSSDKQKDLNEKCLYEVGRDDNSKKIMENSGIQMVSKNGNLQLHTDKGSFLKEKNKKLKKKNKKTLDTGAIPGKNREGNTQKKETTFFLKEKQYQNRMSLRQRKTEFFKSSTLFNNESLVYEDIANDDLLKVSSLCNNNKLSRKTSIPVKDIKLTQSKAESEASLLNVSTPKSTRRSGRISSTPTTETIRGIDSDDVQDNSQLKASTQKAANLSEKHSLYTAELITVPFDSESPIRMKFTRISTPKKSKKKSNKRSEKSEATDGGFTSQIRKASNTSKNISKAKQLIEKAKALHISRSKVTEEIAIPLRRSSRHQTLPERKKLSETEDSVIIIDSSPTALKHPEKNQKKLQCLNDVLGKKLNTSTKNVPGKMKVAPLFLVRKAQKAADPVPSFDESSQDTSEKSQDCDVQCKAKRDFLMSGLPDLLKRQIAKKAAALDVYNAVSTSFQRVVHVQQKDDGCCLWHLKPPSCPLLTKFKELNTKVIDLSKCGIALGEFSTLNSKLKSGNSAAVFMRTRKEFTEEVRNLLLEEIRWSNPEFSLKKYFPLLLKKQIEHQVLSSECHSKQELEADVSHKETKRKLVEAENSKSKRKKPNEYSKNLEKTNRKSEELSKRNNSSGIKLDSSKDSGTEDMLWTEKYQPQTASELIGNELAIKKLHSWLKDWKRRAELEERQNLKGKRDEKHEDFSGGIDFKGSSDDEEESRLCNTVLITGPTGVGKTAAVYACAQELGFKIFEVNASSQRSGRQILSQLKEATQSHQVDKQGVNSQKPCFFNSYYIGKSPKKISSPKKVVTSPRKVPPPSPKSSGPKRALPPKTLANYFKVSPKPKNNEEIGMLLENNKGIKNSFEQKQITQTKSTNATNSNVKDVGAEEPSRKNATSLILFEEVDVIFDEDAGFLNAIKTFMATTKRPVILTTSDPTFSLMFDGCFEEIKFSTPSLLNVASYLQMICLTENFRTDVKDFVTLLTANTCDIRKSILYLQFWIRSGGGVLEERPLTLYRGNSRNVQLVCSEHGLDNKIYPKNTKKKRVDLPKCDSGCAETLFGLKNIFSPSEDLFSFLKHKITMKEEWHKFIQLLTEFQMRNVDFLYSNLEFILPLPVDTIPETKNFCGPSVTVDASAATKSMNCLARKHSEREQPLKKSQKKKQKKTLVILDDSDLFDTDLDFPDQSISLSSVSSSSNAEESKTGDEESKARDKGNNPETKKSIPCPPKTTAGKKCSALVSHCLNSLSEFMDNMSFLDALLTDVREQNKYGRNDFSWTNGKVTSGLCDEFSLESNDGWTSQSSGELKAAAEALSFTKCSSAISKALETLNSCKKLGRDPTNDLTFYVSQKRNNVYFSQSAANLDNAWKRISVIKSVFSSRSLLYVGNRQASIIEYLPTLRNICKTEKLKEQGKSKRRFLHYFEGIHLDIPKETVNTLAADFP
Sequence of UniProt P43220 (P43220 whole entry, looked up): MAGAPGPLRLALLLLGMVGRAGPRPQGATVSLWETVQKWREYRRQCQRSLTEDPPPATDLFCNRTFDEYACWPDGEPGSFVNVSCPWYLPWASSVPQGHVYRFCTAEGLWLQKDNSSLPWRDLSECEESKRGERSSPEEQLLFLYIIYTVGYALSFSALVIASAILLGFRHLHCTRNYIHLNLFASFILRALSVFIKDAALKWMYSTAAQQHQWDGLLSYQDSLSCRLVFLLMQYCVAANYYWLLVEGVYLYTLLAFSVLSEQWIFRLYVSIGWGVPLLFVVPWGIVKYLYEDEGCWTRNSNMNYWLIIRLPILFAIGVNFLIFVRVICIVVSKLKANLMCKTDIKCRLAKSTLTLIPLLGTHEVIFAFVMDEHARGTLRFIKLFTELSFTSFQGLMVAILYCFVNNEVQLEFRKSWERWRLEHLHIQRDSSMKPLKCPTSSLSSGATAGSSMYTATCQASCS
Sequence of UniProt Q9GZX7 (Q9GZX7 whole entry, looked up): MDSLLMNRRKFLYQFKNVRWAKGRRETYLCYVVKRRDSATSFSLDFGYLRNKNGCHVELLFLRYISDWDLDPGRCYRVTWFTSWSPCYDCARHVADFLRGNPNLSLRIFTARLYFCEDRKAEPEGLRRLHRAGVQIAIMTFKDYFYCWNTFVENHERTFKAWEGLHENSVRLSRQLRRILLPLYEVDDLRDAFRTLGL
Sequence of UniProt P54132 (P54132 whole entry, looked up): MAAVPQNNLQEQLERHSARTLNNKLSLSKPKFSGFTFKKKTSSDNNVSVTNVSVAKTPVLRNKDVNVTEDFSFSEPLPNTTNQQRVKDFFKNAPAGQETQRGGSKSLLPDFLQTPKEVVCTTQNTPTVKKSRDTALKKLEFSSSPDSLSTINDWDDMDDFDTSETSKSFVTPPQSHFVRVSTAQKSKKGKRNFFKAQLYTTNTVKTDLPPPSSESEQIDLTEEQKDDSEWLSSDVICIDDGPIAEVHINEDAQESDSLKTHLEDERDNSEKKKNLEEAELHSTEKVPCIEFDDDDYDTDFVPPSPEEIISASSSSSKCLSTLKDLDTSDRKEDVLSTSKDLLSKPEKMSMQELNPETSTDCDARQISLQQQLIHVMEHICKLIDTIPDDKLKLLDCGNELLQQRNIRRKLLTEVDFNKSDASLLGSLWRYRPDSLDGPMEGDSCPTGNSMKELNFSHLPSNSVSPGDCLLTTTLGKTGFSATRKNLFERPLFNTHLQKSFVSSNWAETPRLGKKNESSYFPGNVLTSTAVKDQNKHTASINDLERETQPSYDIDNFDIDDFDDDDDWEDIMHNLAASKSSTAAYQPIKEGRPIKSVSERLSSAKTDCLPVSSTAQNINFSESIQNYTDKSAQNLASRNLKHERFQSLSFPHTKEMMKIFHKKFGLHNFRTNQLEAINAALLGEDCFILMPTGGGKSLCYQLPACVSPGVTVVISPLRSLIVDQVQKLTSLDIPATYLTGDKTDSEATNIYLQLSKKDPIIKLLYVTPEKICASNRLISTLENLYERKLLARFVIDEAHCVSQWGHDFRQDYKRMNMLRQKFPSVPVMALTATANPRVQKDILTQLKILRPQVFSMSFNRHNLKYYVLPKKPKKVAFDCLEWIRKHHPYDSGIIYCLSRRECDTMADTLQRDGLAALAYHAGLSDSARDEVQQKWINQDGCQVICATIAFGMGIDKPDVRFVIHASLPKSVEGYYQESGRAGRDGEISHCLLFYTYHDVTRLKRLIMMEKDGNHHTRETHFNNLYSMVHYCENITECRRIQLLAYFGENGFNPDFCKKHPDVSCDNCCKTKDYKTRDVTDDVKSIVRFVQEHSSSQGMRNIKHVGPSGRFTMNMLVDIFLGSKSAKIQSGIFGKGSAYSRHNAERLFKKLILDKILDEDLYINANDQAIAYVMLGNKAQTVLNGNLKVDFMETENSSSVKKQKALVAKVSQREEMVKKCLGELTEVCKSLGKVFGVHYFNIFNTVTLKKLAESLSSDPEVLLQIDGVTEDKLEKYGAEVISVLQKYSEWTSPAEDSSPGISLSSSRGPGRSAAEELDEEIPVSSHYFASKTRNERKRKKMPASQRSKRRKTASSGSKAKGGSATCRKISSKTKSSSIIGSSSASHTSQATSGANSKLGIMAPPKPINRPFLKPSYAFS
Sequence of UniProt Q99828 (Q99828 whole entry, looked up): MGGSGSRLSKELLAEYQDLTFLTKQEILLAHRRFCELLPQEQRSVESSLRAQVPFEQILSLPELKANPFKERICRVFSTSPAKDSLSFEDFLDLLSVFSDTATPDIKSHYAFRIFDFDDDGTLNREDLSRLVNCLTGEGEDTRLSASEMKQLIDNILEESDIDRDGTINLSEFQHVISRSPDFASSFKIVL

CC(=O)NC1C(OC2CCC3(C)C(CCC4(C)C3CC=C3C5CC(C)(C)CCC5(C(=O)O)C(O)CC34C)C2(C)C)OC(CO)C(O)C1O (stereo not drawn)
inconclusive: Potency [1] 9.63 µM [inhibitor, partial curve, poor fit] | Potency [2] 10.8 µM [inhibitor, partial curve, poor fit]
inactive: Potency (Hek293T) | Potency (SKOV3)

Cc1nc2c([nH]1)c(=O)n(C)c(=O)n2Cc1ccco1
active: Potency [3] 0.0631 µM
inactive: Potency [11] | Potency [12] | Potency [17] | Potency (Hek293T) | Potency (CP325) | Potency (SC27B)
inconclusive: Potency [4] 7.94 µM [inhibitor, full curve, poor fit] | activity change, negative = inhibition [5] -25.1% [phenotype inactive] | Potency [6] 0.0631 µM [inhibitor, partial curve] | Potency [7] 0.0071 µM [inhibitor, full curve, poor fit] | activity change, negative = inhibition [8] 0.494% | Potency [9] 8.91 µM [inhibitor, full curve, poor fit] | Potency [10] 0.891 µM [inhibitor, full curve] | Potency [13] 16.4 µM [activator, single point] | Potency [14] 0.405 µM [inhibitor, full curve, poor fit] | Potency [15] 16.4 µM [activator, partial curve, poor fit] | Potency [16] 0.0024 µM [cytotoxic, full curve, poor fit] | Potency [18] 15.5 µM [inhibitor, partial curve] | Potency [1] 16.8 µM [inhibitor, partial curve, poor fit] | Potency [19] 0.501 µM [inhibitor, full curve, poor fit]

CC1(C)CC[C@]2(C(=O)O)CC[C@]3(C)C(=CCC4[C@@]5(C)CC[C@H](O[C@@H]6O[C@H](C(=O)O)[C@@H](O)[C@H](O)[C@H]6O)C(C)(C)C5CC[C@]43C)C2C1 (stereo partly drawn)
inactive: Potency [20] | Potency [21] | Potency (Hek293T)
inconclusive: Potency [22] 158 µM [inhibitor, partial curve, poor fit]
active: Potency [23] 9.79 µM

C[C@]1(OC(=O)/C=C/c2ccc(O)cc2)C[C@@H](O)[C@]2(O)C=CO[C@@H](O[C@@H]3O[C@H](CO)[C@@H](O)[C@H](O)[C@H]3O)C12 (stereo partly drawn)
inactive: Potency [24] | Potency (Hek293T) | Potency (SKOV3)
